From article PMC7612511 (Advanced therapeutics, 2022) come the findings set out here.

In experiment [1] the target is T1, ColQ1 (collagenase unit) (Bacillus cereus, UniProt B9J3S4). To be noted: 1 × 10^−9 M ColQ1, 2 × 10^−6 m FS1-1, 250 mM HEPES pH 7.5, 400 mM NaCl, 10 mM CaCl2, 10 × 10^−6 m ZnCl2, 5% DMSO, 25 °C, 1 h preincubation; linear regression in 40-60% inhibition range; thiocarbamate.
Experiment [2] deals with T1, ColQ1 (collagenase unit). To be noted: bovine type I collagen 1 mg/mL, 50 ng ColQ1, 250 mM HEPES pH 7.5, 150 mM NaCl, 5 mM CaCl2, 5 × 10^−6 m ZnCl2, 25 °C, 3 h.
For experiment [3], the target named is T1, ColQ1 (collagenase unit). The following applies: bovine type I collagen 1 mg/mL, 50 ng ColQ1, 250 mM HEPES pH 7.5, 150 mM NaCl, 5 mM CaCl2, 5 × 10^−6 m ZnCl2, 25 °C, 3 h. The source holds these as a separate data set.

Turning to `NC(=O)SCC(=O)N(Cc1cccc(Cl)c1)c1ccc(Cl)c(Cl)c1` [compound 2, Compound 2], at ColQ1 (collagenase unit) [1], the IC50 is on record as 95 ± 4 × 10^−6 m. On ColQ1 (collagenase unit) [2], the “full inhibition at 6 × 10^-6 m” value was “COL cleavage assay demonstrated a full collagenase inhibition”.
Take `CC(=O)c1ccc(NC(=O)CP(=O)(O)O)cc1` [compound 1, Compound 1]: the “full inhibition at 75 × 10^-6 m” value on ColQ1 (collagenase unit) [3] is recorded as “COL cleavage assay demonstrated a full collagenase inhibition”.
